# Laboratory results taken from the supplement of paper PMC8728848.
# The list shows a part of the results.
# B1: DC SIGN CRD (Homo sapiens), Q9NNX6 (protein)
# chain: QPCPWEWTFFQGNCYFMSNSQRNWHDSITACKEVGAQLVVIKSAEEQNFLQLQSSRSNRFTWMGLSDLNQEGTWQWVDGSPLLPSFKQYWNRGEPNNVGEEDCAEFSGNGWNDDKCNLAKFWICKKSAWSHPQFEK
# Experiments:
# Assay in all cases: glycan array binding signal (z-score within array); higher = stronger binding
# Conditions in all cases: glycan notation: IUPAC condensed, linker removed
# [1] = biological target: Fuc(a1-2)Gal
# Method in brief: (§1)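 Negative Z-scores can be read as non-binding. The Z-score is calculated within each array and then averaged across arrays of one protein sequence at different concentrations or buffers and across linkers. Arrays, 3228 in all, were curated from the Consortium for Functional Glycomics database and kept only where the protein sequence was available.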
# [2] = biological target: Fuc(a1-2)Gal(b1-3)GalNAc
# Method in brief: as §1
# [3] = biological target: Fuc(a1-2)Gal(b1-3)GalNAc(b1-3)Gal
# Method in brief: as §1
# [4] = biological target: Fuc(a1-2)Gal(b1-3)GalNAc(b1-3)Gal(a1-4)Gal(b1-4)Glc
# Method in brief: as §1
# [5] = biological target: Fuc(a1-2)Gal(b1-3)GalNAc(b1-3)Gal(b1-4)Glc
# Method in brief: as §1
# [6] = biological target: Fuc(a1-2)Gal(b1-3)GalNAc(b1-4)[Neu5Ac(a2-3)]Gal(b1-4)Glc
# Method in brief: as §1
# [7] = biological target: Fuc(a1-2)Gal(b1-3)[Fuc(a1-4)]GlcNAc
# Method in brief: as §1
# [8] = biological target: Fuc(a1-2)Gal(b1-4)Glc
# Method in brief: as §1
# [9] = biological target: Fuc(a1-2)Gal(b1-4)Glc6S
# Method in brief: as §1
# [10] = biological target: Fuc(a1-2)Gal(b1-4)GlcNAc
# Method in brief: as §1
# [11] = biological target: Fuc(a1-2)Gal(b1-4)GlcNAc(b1-3)Gal(b1-4)GlcNAc
# Method in brief: as §1
# [12] = biological target: Fuc(a1-2)Gal(b1-4)GlcNAc(b1-3)Gal(b1-4)GlcNAc(b1-3)Gal(b1-4)GlcNAc
# Method in brief: as §1
# [13] = biological target: Fuc(a1-2)Gal(b1-4)GlcNAc6S
# Method in brief: as §1
# [14] = biological target: Fuc(a1-2)Gal(b1-4)[Fuc(a1-3)]GalNAc(b1-3)Gal(b1-4)[Fuc(a1-3)]GlcNAc
# Method in brief: as §1
# [15] = biological target: Fuc(a1-2)Gal(b1-4)[Fuc(a1-3)]GalNAc(b1-3)Gal(b1-4)[Fuc(a1-3)]GlcNAc(b1-3)Gal(b1-4)[Fuc(a1-3)]GalNAc
# Method in brief: as §1
# [16] = biological target: Fuc(a1-2)Gal(b1-4)[Fuc(a1-3)]GlcNAc
# Method in brief: as §1
# [17] = biological target: Fuc(a1-2)Gal6S(b1-4)Glc
# Method in brief: as §1
# [18] = biological target: Fuc(a1-2)Gal6S(b1-4)Glc6S
# Method in brief: as §1
# [19] = biological target: Fuc(a1-2)Gal6S(b1-4)GlcNAc
# Method in brief: as §1
# [20] = biological target: Fuc(a1-2)GlcNAc
# Method in brief: as §1
# [21] = biological target: Fuc(a1-2)[Gal(a1-3)]Gal
# Method in brief: as §1
# [22] = biological target: Fuc(a1-2)[Gal(a1-3)]Gal(b1-3)GlcNAc
# Method in brief: as §1
# [23] = biological target: Fuc(a1-2)[Gal(a1-3)]Gal(b1-4)Glc
# Method in brief: as §1
# [24] = biological target: Fuc(a1-2)[Gal(a1-3)]Gal(b1-4)GlcNAc
# Method in brief: as §1
# [25] = biological target: Fuc(a1-2)[Gal(a1-3)]Gal(b1-4)[Fuc(a1-3)]GlcNAc
# Method in brief: as §1
# [26] = biological target: Fuc(a1-2)[Gal(a1-4)]Gal(b1-4)GalNAc
# Method in brief: as §1
# [27] = biological target: Fuc(a1-2)[GalNAc(a1-3)]Gal
# Method in brief: as §1
# [28] = biological target: Fuc(a1-2)[GalNAc(a1-3)]Gal(b1-3)GlcNAc
# Method in brief: as §1
# [29] = biological target: Fuc(a1-2)[GalNAc(a1-3)]Gal(b1-4)Glc
# Method in brief: as §1
# [30] = biological target: Fuc(a1-2)[GalNAc(a1-3)]Gal(b1-4)GlcNAc
# Method in brief: as §1
# [31] = biological target: Fuc(a1-2)[GalNAc(a1-3)]Gal(b1-4)[Fuc(a1-3)]GlcNAc
# Method in brief: as §1
# [32] = biological target: Fuc(a1-2)[GalNAc(a1-4)]Gal(b1-4)GlcNAc
# Method in brief: as §1
# [33] = biological target: Fuc(a1-3)GlcNAc
# Method in brief: as §1
# [34] = biological target: Fuc(a1-3)[Gal(b1-4)]Glc6S
# Method in brief: as §1
# [35] = biological target: Fuc(a1-3)[Gal(b1-4)]GlcNAc
# Method in brief: as §1
# [36] = biological target: Fuc(a1-3)[Gal(b1-4)]GlcNAc(b1-3)Gal(b1-3)[Fuc(a1-4)]GlcNAc
# Method in brief: as §1
# [37] = biological target: Fuc(a1-3)[Gal(b1-4)]GlcNAc(b1-4)Gal(b1-4)[Fuc(a1-3)]GlcNAc
# Method in brief: as §1
# [38] = biological target: Fuc(a1-3)[Gal(b1-4)]GlcNAc(b1-4)Gal(b1-4)[Fuc(a1-3)]GlcNAc(b1-4)Gal(b1-4)[Fuc(a1-3)]GlcNAc
# Method in brief: as §1
# [39] = biological target: Fuc(a1-3)[Gal(b1-4)]GlcNAc6S
# Method in brief: as §1
# [40] = biological target: Fuc(a1-3)[Gal3S(b1-4)]Glc
# Method in brief: as §1
# [41] = biological target: Fuc(a1-3)[Gal3S(b1-4)]Glc6S
# Method in brief: as §1
# [42] = biological target: Fuc(a1-3)[Gal3S(b1-4)]GlcNAc
# Method in brief: as §1
# [43] = biological target: Fuc(a1-3)[Gal3S(b1-4)]GlcNAc6S
# Method in brief: as §1
# [44] = biological target: Fuc(a1-3)[GalNAc(b1-4)]Gal(b1-4)GlcNAc
# Method in brief: as §1
# [45] = biological target: Fuc(a1-4)GlcNAc
# Method in brief: as §1
# [46] = biological target: Fuc(b1-3)GlcNAc
# Method in brief: as §1
# [47] = biological target: Gal(a1-2)Gal
# Method in brief: as §1
# [48] = biological target: Gal(a1-3)Gal
# Method in brief: as §1
# [49] = biological target: Gal(a1-3)Gal(b1-3)Glc
# Method in brief: as §1
# [50] = biological target: Gal(a1-3)Gal(b1-3)GlcNAc
# Method in brief: as §1
# [51] = biological target: Gal(a1-3)Gal(b1-4)GlcNAc
# Method in brief: as §1
# [52] = biological target: Gal(a1-3)Gal(b1-4)[Fuc(a1-3)]GalNAc
# Method in brief: as §1
# [53] = biological target: Gal(a1-3)GlcNAc
# Method in brief: as §1
# [54] = biological target: Gal(a1-3)[Gal(a1-4)]Gal(b1-4)GlcNAc
# Method in brief: as §1
# [55] = biological target: Gal(a1-4)Gal(b1-4)Gal
# Method in brief: as §1
# [56] = biological target: Gal(a1-4)Gal(b1-4)GalNAc
# Method in brief: as §1
# [57] = biological target: Gal(a1-4)GlcNAc
# Method in brief: as §1
# [58] = biological target: Gal(a1-6)Glc
# Method in brief: as §1
# [59] = biological target: Gal(b1-2)Gal
# Method in brief: as §1
# [60] = biological target: Gal(b1-3)Gal
# Method in brief: as §1
binder,measurement,setting,value
B1,glycan array binding signal (z-score),[1],0.574
same,glycan array binding signal (z-score),[2],-0.378
same,glycan array binding signal (z-score),[3],-0.391
same,glycan array binding signal (z-score),[4],-0.37
same,glycan array binding signal (z-score),[5],-0.393
same,glycan array binding signal (z-score),[6],-0.377
same,glycan array binding signal (z-score),[7],0.926
same,glycan array binding signal (z-score),[8],-0.124
same,glycan array binding signal (z-score),[9],-0.36
same,glycan array binding signal (z-score),[10],-0.124
same,glycan array binding signal (z-score),[11],-0.265
same,glycan array binding signal (z-score),[12],-0.35
same,glycan array binding signal (z-score),[13],-0.346
same,glycan array binding signal (z-score),[14],5.67
same,glycan array binding signal (z-score),[15],3.54
same,glycan array binding signal (z-score),[16],4.18
same,glycan array binding signal (z-score),[17],-0.242
same,glycan array binding signal (z-score),[18],-0.351
same,glycan array binding signal (z-score),[19],-0.212
same,glycan array binding signal (z-score),[20],0.652
same,glycan array binding signal (z-score),[21],0.666
same,glycan array binding signal (z-score),[22],-0.394
same,glycan array binding signal (z-score),[23],-0.339
same,glycan array binding signal (z-score),[24],-0.383
same,glycan array binding signal (z-score),[25],0.466
same,glycan array binding signal (z-score),[26],-0.259
same,glycan array binding signal (z-score),[27],0.028
same,glycan array binding signal (z-score),[28],-0.278
same,glycan array binding signal (z-score),[29],-0.178
same,glycan array binding signal (z-score),[30],-0.382
same,glycan array binding signal (z-score),[31],1.01
same,glycan array binding signal (z-score),[32],0.023
same,glycan array binding signal (z-score),[33],-0.201
same,glycan array binding signal (z-score),[34],0.201
same,glycan array binding signal (z-score),[35],1.99
same,glycan array binding signal (z-score),[36],2.33
same,glycan array binding signal (z-score),[37],2.15
same,glycan array binding signal (z-score),[38],5.8
same,glycan array binding signal (z-score),[39],0.951
same,glycan array binding signal (z-score),[40],1.1
same,glycan array binding signal (z-score),[41],0.12
same,glycan array binding signal (z-score),[42],-0.131
same,glycan array binding signal (z-score),[43],-0.123
same,glycan array binding signal (z-score),[44],1.09
same,glycan array binding signal (z-score),[45],0.409
same,glycan array binding signal (z-score),[46],1.39
same,glycan array binding signal (z-score),[47],-0.332
same,glycan array binding signal (z-score),[48],-0.356
same,glycan array binding signal (z-score),[49],-0.385
same,glycan array binding signal (z-score),[50],-0.343
same,glycan array binding signal (z-score),[51],-0.249
same,glycan array binding signal (z-score),[52],0.889
same,glycan array binding signal (z-score),[53],-0.254
same,glycan array binding signal (z-score),[54],-0.351
same,glycan array binding signal (z-score),[55],-0.355
same,glycan array binding signal (z-score),[56],-0.115
same,glycan array binding signal (z-score),[57],-0.378
same,glycan array binding signal (z-score),[58],-0.271
same,glycan array binding signal (z-score),[59],-0.316
same,glycan array binding signal (z-score),[60],-0.343
